The list shows a part of the results. Most values come without repeats; read them as rough.
Tested on: IST-MEL1
Experiment: cell count relative to DMSO control; melanoma cells; higher = more viable cells
Conditions: library dose: low library concentration; 72 h
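Further: cell number obtained by counting DAPI-stained nuclei in high-throughput microscope images with image analysis software, screen run in 1,536-well plates.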

SMILES | cell count [%]
O=c1[nH]nc(Sc2ncc([N+](=O)[O-])s2)n1-c1ccc2c(c1)OCCO2 + C[C@]1(c2nc3c(C(N)=O)cccc3[nH]2)CCCN1 [Veliparib] (first compound 0.2 µM, partner dose 1.4 µM) | 102
O=C(Nc1cccc(Cl)c1)Nc1ncc(CCNc2ncnc3ccsc23)s1 + CCCCCCCCCCCC1=C(O)C(=O)C=C(O)C1=O [Embelin] (first compound 0.0008 µM, partner dose 1.2 µM) | 93.3
O=C(Nc1cccc(Cl)c1)Nc1ncc(CCNc2ncnc3ccsc23)s1 + c1cc(-c2cnn3cc(-c4ccc(OCCN5CCCCC5)cc4)cnc23)ccn1 [Dorsomorphin] (first compound 0.0008 µM, partner dose 0.4 µM) | 90.3
C[C@@H]1CCN(C(=O)CC#N)C[C@@H]1N(C)c1ncnc2[nH]ccc12 + CCCCCCCCCCCC1=C(O)C(=O)C=C(O)C1=O [Embelin] (first compound 1 µM, partner dose 1.2 µM) | 106
COc1cc(Nc2ncc(F)c(Nc3ccc4c(n3)NC(=O)C(C)(C)O4)n2)cc(OC)c1OC [Tamatinib] + Oc1nc(-c2ccc(C(F)(F)F)cc2)nc2c1CSCC2 [XAV939] (first compound 0.4 µM, partner dose 2 µM) | 88.7
O=C(O)c1ccc(-c2c[nH]c3ncc(-c4ccccc4)cc23)cc1C1CCCC1 + COc1ccc2c(c1)CCC1C2CCC2(C)C(NCCCCCCN3C(=O)C=CC3=O)CCC12 [U73122] (first compound 0.16 µM, partner dose 0.4 µM) | 91.7
O=c1[nH]nc(Sc2ncc([N+](=O)[O-])s2)n1-c1ccc2c(c1)OCCO2 + Nc1ccn([C@@H]2O[C@H](CO)[C@@H](O)C2(F)F)c(=O)n1 [gemcitabine] (first compound 0.2 µM, partner dose 0.0004 µM) | 75.8
CC1(C)NC(=O)N(c2ccc([N+](=O)[O-])c(C(F)(F)F)c2)C1=O [nilutamide] + CCCCCCCCCCCC1=C(O)C(=O)C=C(O)C1=O [Embelin] (first compound 1 µM, partner dose 1.2 µM) | 102
O=c1[nH]nc(Sc2ncc([N+](=O)[O-])s2)n1-c1ccc2c(c1)OCCO2 + CNC(=O)c1cc(Oc2ccc(NC(=O)Nc3ccc(Cl)c(C(F)(F)F)c3)cc2)ccn1 [sorafenib] (first compound 0.2 µM, partner dose 0.4 µM) | 103
Cn1cncc1[C@@](N)(c1ccc(Cl)cc1)c1ccc2c(c1)c(-c1cccc(Cl)c1)cc(=O)n2C [tipifarnib] + COC(=O)c1sccc1S(=O)(=O)Nc1ccc(Nc2ccccc2)cc1OC [GSK0660] (first compound 0.01 µM, partner dose 1 µM) | 102
O=c1[nH]nc(Sc2ncc([N+](=O)[O-])s2)n1-c1ccc2c(c1)OCCO2 + Cc1cn(-c2cc(NC(=O)c3ccc(C)c(Nc4nccc(-c5cccnc5)n4)c3)cc(C(F)(F)F)c2)cn1 [nilotinib] (first compound 0.2 µM, partner dose 0.2 µM) | 94.1
O=c1[nH]nc(Sc2ncc([N+](=O)[O-])s2)n1-c1ccc2c(c1)OCCO2 + CC(C)C[C@H](NC(=O)[C@H](Cc1ccccc1)NC(=O)c1cnccn1)B(O)O [Bortezomib] (first compound 0.2 µM, partner dose 0.001 µM) | 102
O=c1[nH]nc(Sc2ncc([N+](=O)[O-])s2)n1-c1ccc2c(c1)OCCO2 + Cc1nc(Nc2ncc(C(=O)Nc3c(C)cccc3Cl)s2)cc(N2CCN(CCO)CC2)n1 [dasatanib] (first compound 0.2 µM, partner dose 0.004 µM) | 85.8
O=C(O)c1ccc(-c2c[nH]c3ncc(-c4ccccc4)cc23)cc1C1CCCC1 + Oc1nc(-c2ccc(C(F)(F)F)cc2)nc2c1CSCC2 [XAV939] (first compound 0.16 µM, partner dose 2 µM) | 102
CC1(C)NC(=O)N(c2ccc([N+](=O)[O-])c(C(F)(F)F)c2)C1=O [nilutamide] + CCN(CC)CCCCNc1ncc2cc(-c3cc(OC)cc(OC)c3)c(NC(=O)NC(C)(C)C)nc2n1 [PD173074] (first compound 1 µM, partner dose 0.1 µM) | 109
Cn1cncc1[C@@](N)(c1ccc(Cl)cc1)c1ccc2c(c1)c(-c1cccc(Cl)c1)cc(=O)n2C [tipifarnib] + c1cc(-c2cnn3cc(-c4ccc(OCCN5CCCCC5)cc4)cnc23)ccn1 [Dorsomorphin] (first compound 0.01 µM, partner dose 0.4 µM) | 96.4
C[C@@H]1CCN(C(=O)CC#N)C[C@@H]1N(C)c1ncnc2[nH]ccc12 + COc1cc(N2CCC(N3CCN(C)CC3)CC2)ccc1Nc1ncc(Cl)c(Nc2ccccc2S(=O)(=O)C(C)C)n1 [NVP-TAE684] (first compound 1 µM, partner dose 0.08 µM) | 103
O=C(O)c1ccc(-c2c[nH]c3ncc(-c4ccccc4)cc23)cc1C1CCCC1 + Oc1cc(-c2nc(-c3ccccc3)[nH]c2-c2ccncc2)ccc1Cl [L779450] (first compound 0.16 µM, partner dose 0.2 µM) | 92.7
COc1cc(Nc2ncc(F)c(Nc3ccc4c(n3)NC(=O)C(C)(C)O4)n2)cc(OC)c1OC [Tamatinib] + COc1ccc2c(c1)CCC1C2CCC2(C)C(NCCCCCCN3C(=O)C=CC3=O)CCC12 [U73122] (first compound 0.4 µM, partner dose 0.4 µM) | 102
C[C@@H]1CCN(C(=O)CC#N)C[C@@H]1N(C)c1ncnc2[nH]ccc12 + O=S(=O)(c1ccccc1)N(CC(F)(F)F)c1ccc(C(O)(C(F)(F)F)C(F)(F)F)cc1 [T0901317] (first compound 1 µM, partner dose 1.4 µM) | 102
O=c1[nH]nc(Sc2ncc([N+](=O)[O-])s2)n1-c1ccc2c(c1)OCCO2 + COc1ccc(C2=N[C@@H](c3ccc(Cl)cc3)[C@@H](c3ccc(Cl)cc3)N2C(=O)N2CCNC(=O)C2)c(OC(C)C)c1 [Nutlin-3] (first compound 0.2 µM, partner dose 0.1 µM) | 103
CC1(C)NC(=O)N(c2ccc([N+](=O)[O-])c(C(F)(F)F)c2)C1=O [nilutamide] + COc1cc(N2CCC(N3CCN(C)CC3)CC2)ccc1Nc1ncc(Cl)c(Nc2ccccc2S(=O)(=O)C(C)C)n1 [NVP-TAE684] (first compound 1 µM, partner dose 0.08 µM) | 111
